Source: PubChem BioAssay AID1347165 (National Center for Advancing Translational Sciences (NCATS), 2019)
Several values for one entry are separate records, joined by “and”; a condition that tells them apart may be missing. Equal entries are not always repeated. The whole screen tested about 220,000 compounds, of which about 5,700 (2.6%) were called active. The inconclusive results got no clear call from the source; some entries with a clear call stand among them for comparison. Calls follow the shape of the dose curve; as a rule, active = well fitted inhibition curve with a large enough effect; inconclusive = small, poorly fitted or top-dose-only effect; inactive = no such curve, though single readings can be large or run the other way. Potencies beside an inconclusive call are fits to weak or partial responses and may not hold up.

The molecules below were run against Lysine-specific demethylase 5B (Homo sapiens) (UniProt Q9UGL1) (assay: Primary screen for KDM5B Histone Demethylases FDH-coupled qHTS). Conditions: FDH-coupled NADH fluorescence (FDH is formaldehyde dehydrogenase); activity change, negative = inhibition: at 57.7 µM (top of the series) unless noted.
Summary of the method: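 Measured: NADH fluorescence change, 30 min, RT. System: KDM5BΔAP 200 nM final, H3K4me3 peptide, α-KG, Fe(II), ascorbate, NAD⁺ plus FDH, pH 7.5 HEPES. Compounds: titrated, 10 min pre-incubation with enzyme.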
Also: nearly all actives have a fitted effect of over 70% in size.
For activity change, negative = inhibition in this document: 0% is about no effect.
Potency is read from the fitted curve at half-maximal effect; tags tell the direction and shape of the fitted curve.

Chain of UniProt Q9UGL1 (Q9UGL1 whole entry, looked up): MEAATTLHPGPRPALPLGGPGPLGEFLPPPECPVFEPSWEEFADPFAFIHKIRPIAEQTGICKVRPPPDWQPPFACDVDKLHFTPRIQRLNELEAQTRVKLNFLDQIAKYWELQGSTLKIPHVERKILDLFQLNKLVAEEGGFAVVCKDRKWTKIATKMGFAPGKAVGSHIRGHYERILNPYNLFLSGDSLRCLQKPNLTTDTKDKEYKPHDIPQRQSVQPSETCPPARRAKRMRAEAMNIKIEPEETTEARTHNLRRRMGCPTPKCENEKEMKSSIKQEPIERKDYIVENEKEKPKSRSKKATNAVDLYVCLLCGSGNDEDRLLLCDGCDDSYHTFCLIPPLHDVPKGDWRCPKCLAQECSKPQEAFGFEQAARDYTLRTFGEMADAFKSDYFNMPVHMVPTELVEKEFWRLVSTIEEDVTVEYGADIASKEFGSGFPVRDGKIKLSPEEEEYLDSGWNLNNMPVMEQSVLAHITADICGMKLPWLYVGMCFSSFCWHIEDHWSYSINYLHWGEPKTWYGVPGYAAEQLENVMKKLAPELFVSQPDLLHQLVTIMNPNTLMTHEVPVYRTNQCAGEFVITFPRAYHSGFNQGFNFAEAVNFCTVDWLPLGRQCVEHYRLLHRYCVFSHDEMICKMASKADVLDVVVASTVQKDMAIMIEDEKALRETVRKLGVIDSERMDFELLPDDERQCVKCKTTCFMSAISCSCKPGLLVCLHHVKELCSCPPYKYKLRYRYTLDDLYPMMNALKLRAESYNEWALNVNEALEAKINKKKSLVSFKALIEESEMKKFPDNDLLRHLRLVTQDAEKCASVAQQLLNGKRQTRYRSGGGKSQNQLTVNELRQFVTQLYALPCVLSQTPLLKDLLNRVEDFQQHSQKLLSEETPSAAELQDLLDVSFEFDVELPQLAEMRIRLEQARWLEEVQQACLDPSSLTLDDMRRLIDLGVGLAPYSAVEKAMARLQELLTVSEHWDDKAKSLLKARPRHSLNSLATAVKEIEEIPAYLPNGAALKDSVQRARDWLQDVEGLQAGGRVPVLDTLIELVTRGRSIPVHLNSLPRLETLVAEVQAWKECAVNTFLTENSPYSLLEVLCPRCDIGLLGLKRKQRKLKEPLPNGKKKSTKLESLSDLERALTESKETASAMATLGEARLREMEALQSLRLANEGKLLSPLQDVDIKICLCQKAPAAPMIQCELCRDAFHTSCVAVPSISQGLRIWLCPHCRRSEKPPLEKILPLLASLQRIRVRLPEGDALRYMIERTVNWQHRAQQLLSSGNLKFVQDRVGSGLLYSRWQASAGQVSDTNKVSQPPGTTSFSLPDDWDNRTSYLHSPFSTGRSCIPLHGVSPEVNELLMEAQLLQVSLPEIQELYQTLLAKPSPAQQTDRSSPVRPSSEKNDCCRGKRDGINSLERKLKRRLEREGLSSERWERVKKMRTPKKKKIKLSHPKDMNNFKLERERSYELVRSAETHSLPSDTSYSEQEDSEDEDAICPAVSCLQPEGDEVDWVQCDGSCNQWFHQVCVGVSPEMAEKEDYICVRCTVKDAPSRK

| SMILES | Potency | activity change, negative = inhibition |
| --- | --- | --- |
| O=C(NNC(=O)c1nn(-c2ccc(F)cc2)ccc1=O)c1ccc(Cl)cc1 | inconclusive: 35.5 µM [inhibitor, partial curve, poor fit] |  |
| Cc1cc(C)cc(OCC(=O)Nc2ccc(-c3nc4ccccc4o3)cc2)c1 | inconclusive: 31.6 µM [inhibitor, partial curve, poor fit] and inconclusive: 1.58 µM [inhibitor, partial curve, poor fit] |  |
| O=C(NCc1cc(F)cc(F)c1)c1nc(-c2ccc(F)cc2)c2ccccn12 | inconclusive: 25.1 µM [inhibitor, partial curve, poor fit] |  |
| c1cncc(-c2ccnc(NCCc3noc(C4CCCC4)n3)n2)c1 | active: 31.6 µM |  |
| Cc1ccc(NC(=O)CSc2nc3n[nH]c(C)c3c(=N)n2-c2cccc(C)c2)cc1 | inconclusive: 25.1 µM [inhibitor, partial curve, poor fit] |  |
| CCNc1ccc(S(=O)(=O)N(CC)CC)cc1NC(=O)Cc1ccccc1F |  | inactive: 11.8% |
| COC(=O)CNC(=O)c1nc(-c2ccc(Cl)nc2)c2ccccn12 | inconclusive: 56.2 µM [inhibitor, partial curve, poor fit] |  |
| CS(=O)(=O)c1ccc(CN2C[C@@H]3OCC(=O)N(CC(N)=O)[C@@H]3C2)cc1 | inconclusive: 35.5 µM [inhibitor, partial curve, poor fit] |  |
| O=C(COc1ccc([N+](=O)[O-])cc1)Nc1ccc2oc(-c3ccc4ccccc4c3)nc2c1 |  | inactive: -13% |
| Cc1cc(Nc2cccc(Cl)c2)nc2ccc(NC(=O)c3cccnc3)cc12 | inconclusive: 28.2 µM [inhibitor, partial curve, poor fit] |  |
| CCSc1ncc(Cl)c(C(=O)Nc2ccc(S(=O)(=O)N(C)c3ccccc3)cc2)n1 | inconclusive: 15.8 µM [inhibitor, partial curve, poor fit] |  |
| c1csc(C(Nc2ccc3nnnn3n2)c2ccc3c(c2)CCC3)c1 (stereo not given) | inconclusive: 39.8 µM [inhibitor, single point] |  |
| Cc1cc(C)c(C)c(S(=O)(=O)N2CCN(CC(=O)NC(=O)NC(C)(C)C)CC2)c1C |  | inactive: 13.4% |
| CSCCc1nc(Cn2cccnc2=O)n(-c2ccccc2C(=O)O)n1 | inconclusive: 39.8 µM [inhibitor, single point] |  |
| COc1ccc(-c2cc(C(=O)NCC(O)CO)c3ccccc3n2)cc1 (stereo not given) | inconclusive: 25.1 µM [inhibitor, partial curve, poor fit] |  |
| COc1ccc(CN2C[C@@H]3C(=O)N(CCN4CCc5ccccc5C4)C(=O)[C@@H]3C2)cc1 | inconclusive: 28.2 µM [inhibitor, single point] |  |
| O=c1ccn(O)cc1[N+](=O)[O-] |  | inactive: -9.44% |
| O=C1NCCOCCN(S(=O)(=O)c2cccc3nsnc23)[C@@H]2CCCC[C@H]12 | inconclusive: 14.1 µM [inhibitor, partial curve, poor fit] |  |
| CCc1cccc(C)c1NC(=O)CSc1nnc(CC)n2c1cc1occc12 | inconclusive: 22.4 µM [inhibitor, single point] |  |
| CCCc1cc(C(=O)Nc2cccc([N+](=O)[O-])c2)cs1 | inconclusive: 22.4 µM [inhibitor, single point] |  |

| SMILES | Potency | activity change, negative = inhibition |
| --- | --- | --- |
| COc1ccc(CNC(=O)N2CCN(S(=O)(=O)c3cc(F)ccc3F)CC2)cn1 |  | inactive: 19.5% |
| CCC/C=N/NC(=O)CCCC(=O)N/N=C/CCC | inconclusive: 12.6 µM [inhibitor, partial curve, poor fit] |  |
| CC(C)n1nc(C(=O)Nc2ccc(Nc3ccccc3)cc2)c2ccccc2c1=O |  | inactive: 5.18% |
| CCOC(=O)c1ccccc1NC(=O)N(C)CCc1c(C)nn(CC)c1C | inconclusive: 39.8 µM [inhibitor, single point] |  |
| Cc1cc(C)cc(Oc2nc3c(c(=O)n(C)c(=O)n3C)n2Cc2ccc(F)cc2)c1 |  | inconclusive: -104% [inhibitor] [at 11.5 µM] |
| NC(=O)c1ccccc1NC(=O)c1ccc(-c2ccccc2)cc1 | inconclusive: 22.4 µM [inhibitor, partial curve, poor fit] |  |
| CN1CCN(C(=O)Nc2cccc(-c3ccccc3)c2)CC1 |  | inactive: -5.58% |
| CCc1nnc(SCC(=O)Nc2ccc(F)cc2F)c2cc3sc(C)cc3n12 |  | inactive: -9.88% |
| COc1cc(C(=O)Nc2ccc3oc(-c4ccc(C)c(Br)c4)nc3c2)cc(OC)c1OC | inconclusive: 14.1 µM [inhibitor, partial curve, poor fit] |  |
| COC(=O)[C@@H]1Cc2c([nH]c3ccccc23)[C@H]2C[C@@H](NCCNC(C)=O)C[C@@H](c3ccccc3F)N21 | inconclusive: 3.16 µM [inhibitor, partial curve, poor fit] |  |
| CNC(=O)c1cc2cc(-c3c(C)noc3C)nc(-c3cccnc3)c2o1 | inconclusive: 35.5 µM [inhibitor, partial curve, poor fit] |  |
| O=c1c(S(=O)(=O)c2ccccc2)cn(Cc2ccccc2)c2cc(N3CCOCC3)c(F)cc12 | inconclusive: 35.5 µM [inhibitor, partial curve, poor fit] |  |
| Cc1ccnc(C(NC(=O)CCc2cc3n(n2)CCCNC3)C2CC2)c1 (stereo not given) | active: 28.2 µM |  |
| Cc1ccc2c(c1)N1C(=O)OC[C@@H]1CCN(Cc1cccnc1)C2 |  | inactive: 24.5% [at 86.2 µM] |
| CSc1ccc(/C=C/C(=O)c2ccc(S(=O)(=O)NCC(=O)O)cc2)cc1 | inconclusive: 39.8 µM [inhibitor, single point] |  |
| Cn1c(CNC(=O)C2Cn3cccc3C(=O)N2Cc2ccccc2)nc2ccccc21 (stereo not given) | inconclusive: 17.8 µM [inhibitor, partial curve] |  |
| C#CCN(Cc1ccc(C)cc1)C(=O)C1CCCN(C(=O)CC)C1 (stereo not given) |  | inactive: 16% |
| CC1CN(C(=O)Nc2ccc(C(=O)NCc3cccc(F)c3)cc2)c2ccccc2S1 (stereo not given) |  | inactive: 2.16% |
| O=C(Nc1ccccc1Cl)N1CCC(CN2CCCCC2)CC1 | inconclusive: 1.41 µM [inhibitor, partial curve, poor fit] |  |
| O=C(Nc1ccc(C(F)(F)F)cc1)C1CCCN(c2cnccn2)C1 (stereo not given) | inconclusive: 39.8 µM [inhibitor, partial curve, poor fit] |  |
